This is an account of results in ChEMBL document CHEMBL4888484, “Replenishing the malaria drug discovery pipeline: Screening and hit evaluation of the MMV Hit Generation Library 1 (HGL1) against asexual blood stage Plasmodium falciparum ,using a nano luciferase reporter read-out” (2022).

Each structure is given as a SMILES string. Hit rate of the full screen: of about 150,000 compounds, about 540 (0.36%) showed an effect of 50% or more. The list shows a part of the results.

For this assay, the system named is Plasmodium falciparum. The assay can be described thus: Primary screen in NF54 nanoGlo assay, in single point, at 2uM, 72h; a lower Z score goes with more inhibition. In kind it is functional, Erythrocyte. The note with it: timepoint 72 hour.
As to `CN(CCCOc1cccc(Cl)c1)C(=O)CCn1cnc2ccccc2c1=O`, the % Inhibition (usually the drop in the measured response relative to a control, in per cent) is -6% and the Z score amounted to 1.13. With `COCC(=O)N1CCN(C(=O)c2ccc(N(C)C)cc2)C[C@H]1C(=O)N[C@@H](CC1CCCCC1)C(N)=O`, the “% Inhibition” value is listed as -3% and the Z score is reported as 0.49.

Take `CC(=O)N1CCCC[C@H]1C(=O)Nc1cc(-c2ccncc2)ccc1C`: the “% Inhibition” value is listed as -7% and the Z score turned out to be 1.31. `CCCc1cc(C(=O)N[C@H]2CC[C@H](n3cnnc3)CC2)ccn1`: the “% Inhibition” value is -3% and the Z score is listed as 0.26. On to `CCCn1nc(-n2cnnc2)c(NS(=O)(=O)c2ccc(Br)cc2)c1C`, for which the “% Inhibition” value came to 38% and the Z score is -5.17. `OC[C@H](CC(F)(F)F)Nc1ccc(Br)cn1`: the “% Inhibition” value is given as 2% and the Z score was -0.36. In the case of `COCc1ncc(CN2CCC3(CC2)CN(CCC(C)C)C(=O)O3)cn1`, the “% Inhibition” value is listed as -5% and the Z score worked out at 0.87.

For the compound `CCCN(Cc1ccc(-n2cccn2)cc1)[C@H]1CCS(=O)(=O)C1`, the “% Inhibition” value is on record as -4% and the Z score is 0.6. In turn, `COc1cc(OC)cc(C(=O)N[C@@H](C)c2nnc3n2CCCCC3)c1` yielded a Z score of 1.34. For `CN(Cc1nnnn1C)C1(C(N)=O)CCCC1`, the “% Inhibition” value was -18% and the Z score is on record as 2.2. The corresponding values for `CCCc1nnc(N2C[C@@H](CN3CCCCCC3)[C@@H](CO)C2)s1` are -8% and 1.49. In the case of `CCS(=O)(=O)NC[C@](C)(OC)c1cccc(Cl)c1`, the “% Inhibition” value worked out at 15% and the Z score is recorded as -1.87. On to `Cc1cc(S(=O)(=O)N2CCC(c3cc[nH]n3)CC2)c(C)s1`, for which the “% Inhibition” value is recorded as -4% and the Z score was found to be 0.58. `Cc1[nH]c2ccccc2c1C(=O)N1CC[C@H](c2ncccn2)C1`: the “% Inhibition” value was 3% and the Z score was -0.5. The corresponding values for `CC(=O)NCC1CCN(c2ccc3cc(Cl)cnc3n2)CC1` are 2% and -0.46.

Take `Cc1ccc(NC(=O)C(=O)N2CCCN(C)C3(CCN(C)CC3)C2)c(C)c1`: the “% Inhibition” value is -11% and the Z score amounted to 1.4.

Consider `CCC1CC(CC(=O)NS(=O)(=O)c2ccnn2C)CCO1` (centres undefined), for which the “% Inhibition” value was found to be 33% and the Z score is -4.73. `Cc1[nH]c(=O)c(C(=O)N[C@H](c2ccccn2)C(F)(F)F)c(C)c1C`: the “% Inhibition” value is reported as -9% and the Z score is 1.73. `COc1ccc([C@@H](C)NC(=O)N2CCCC(C)(F)C2)c(OC)c1` (some centres undefined): the “% Inhibition” value worked out at 1% and the Z score is -0.1.

`Cc1nc(C(C)C)sc1[C@H](C)NCCCn1ccnc1`: the “% Inhibition” value is listed as -2% and the Z score worked out at 0.28. As for `Cn1nc(-c2ccccc2)c(CN2CCOCC2)c1Cl`, the “% Inhibition” value was -8% and the Z score worked out at 1.55. Turning to `CC1CN(c2ccc(NC(=O)N(C)CC3CCCO3)cc2)CC(C)O1` (centres undefined), the “% Inhibition” value is -14% and the Z score is on record as 1.21. As to `CC1CN(CC2CCCO2)CCC1NCc1ccnc(OCC2CC2)c1` (centres undefined), the “% Inhibition” value is recorded as 8% and the Z score is -0.69. As to `COc1ccc(OC[C@@H](O)CN2CCC(O)CC2)c(CN(C)CCC2CCOCC2)c1`, the “% Inhibition” value is -13% and the Z score amounted to 1.34. As to `CN(C)C(=O)c1ccc(Cl)cc1NCCOCC(F)(F)F`, the “% Inhibition” value came out at 0% and the Z score was determined as 0.02. Consider `C[C@H](NC(=O)N(C)Cc1ncc[nH]1)C(F)(F)F`, for which the “% Inhibition” value is reported as 4% and the Z score was -0.88. Regarding `CC(C)c1cc(=O)n(CCC2OCCO2)cn1`, the “% Inhibition” value is -17% and the Z score was found to be 3.21. With `N#Cc1cccnc1NCc1ccc(S(=O)(=O)N2CCCC2)cc1`, the “% Inhibition” value is given as -7% and the Z score worked out at 0.99.

For the compound `Cc1ccc(CNC(=O)N2C[C@@H]3CC[C@H]2CN(C(=O)c2ccncc2)C3)cc1`, the “% Inhibition” value was -9% and the Z score amounted to 1.32.

For `O=C1NCCN1C1CN(Cc2cccc(-c3ccccc3)c2)C1`, the “% Inhibition” value is listed as -4% and the Z score worked out at 0.54. The like results for `C[C@H](O)CN(C)c1nccnc1N(C)C` were, in that order, 0% and 0. As to `CCC(=O)NC[C@@H]1C[C@H](F)CN1S(=O)(=O)c1ccc(Cl)s1`, the “% Inhibition” value was determined as 3% and the Z score is -0.46. With `CCOC(=O)c1coc(N2CCC3(CC2)CC(=O)N(Cc2ccccc2)C3)n1`, the “% Inhibition” value turned out to be 4% and the Z score is listed as -0.49. With `O=C(CCc1ccccc1F)N1CC(CN2C(=O)COC2=O)C1`, the “% Inhibition” value is -5% and the Z score is 0.87. In the case of `COc1cccc(NC(=O)N2C[C@@H]3CC[C@H]2CN(Cc2[nH]cnc2C)C3)c1`, the “% Inhibition” value is listed as -11% and the Z score is 1.48. The corresponding values for `Cc1ccc([C@H](C)NC(=O)CCn2cccn2)cn1` are -7% and 1.24. The like results for `Cc1ccccc1[C@@H](NC(=O)NC1(C(N)=O)CCCC1)c1ccncc1` were, in that order, -3% and 0.5. As for `CCCN1C[C@@H](NS(=O)(=O)c2ccc(-c3cc(C(F)(F)F)on3)o2)CC1=O`, the “% Inhibition” value is recorded as -12% and the Z score amounted to 1.31.

In the case of `CN(C)[C@@]1(c2nnnn2C2CCCC2)CCN(C(=O)c2c[nH]nc2-c2ccccc2)C1`, the “% Inhibition” value was -13% and the Z score is 1.48. Regarding `O=C(Nc1cnn(-c2ncncc2N2CCCCC2)c1)c1ccco1`, the “% Inhibition” value is reported as -16% and the Z score was determined as 1.76. On to `CCOC(=O)Cc1c(-[n+]2ccccc2)[nH]c2ccccc12`, for which the “% Inhibition” value is recorded as 1% and the Z score was -0.17.

`c1cncc(Nc2nncn2CC2CCCCCC2)c1`: the “% Inhibition” value was -2% and the Z score was determined as 0.22. The corresponding values for `Cc1cc(N2CC[C@H](OCc3csc(C)n3)C2)ccn1` are -4% and 0.63. The like results for `Cc1sc2nc(-c3cccs3)nc(N3CC(O)C3)c2c1C` were, in that order, 8% and -1.43. In the case of `O=C1C2ON(c3ccccc3)C(c3cc(Br)ccc3O)C2C(=O)N1c1cccc2ccccc12` (centres undefined), the “% Inhibition” value is recorded as -17% and the Z score turned out to be 1.84. Consider `Cc1cc(F)c(S(=O)(=O)NC(=O)c2cnn3c2CCC3)c(F)c1`, for which the “% Inhibition” value was -4% and the Z score worked out at 0.55. Consider `Cn1c(C2CC2)nc2cc(N[C@H]3CCCOC3)ccc21`, for which the “% Inhibition” value is reported as -16% and the Z score is reported as 1.64. With `Cc1cnc(C(=O)N2CCCCCCC2)cn1`, the “% Inhibition” value was 2% and the Z score was -0.27.

For `Cc1ccsc1CNCCn1cccn1`, the “% Inhibition” value was -11% and the Z score came out at 1.38.

In the case of `Cc1cnc(CCNC(=O)C(C)C)n1C1CCCCC1`, the “% Inhibition” value is given as -1% and the Z score was determined as 0.2. `O=C(NCCc1ccc(F)cc1)c1coc(NC(=O)c2cnccn2)n1`: the “% Inhibition” value was 11% and the Z score is -1.92. As for `Cc1cc(NC(=O)[C@H]2CC(=O)N(C(C)C)C2)n(C2CCCCC2)n1`, the “% Inhibition” value is recorded as -9% and the Z score is on record as 1.29.

As for `Cc1ccccc1C(=O)N(Cc1cc(Cl)ccc1OCc1nc(CO)cs1)[C@@H](C)C(C)C`, the “% Inhibition” value is on record as -2% and the Z score was 0.17.

With `Cc1ccc(CN2CC[C@@H](c3nc(C)no3)N(S(C)(=O)=O)CC2)nc1`, the “% Inhibition” value is reported as 1% and the Z score is reported as -0.21. The like results for `NCCNCCOCCOc1ccc(Cl)c(Cl)c1` were, in that order, 20% and -2.69. With `Cc1cc(C)c(-c2cc(C(=O)N(CCC(=O)NC[C@H]3CCCO3)CC(C)C)no2)c(C)c1`, the “% Inhibition” value came out at 7% and the Z score was -0.93. Take `O=C1CC[C@]2(CNC(=O)c3ccc4ccccc4n3)CCCC=C2N1`: the “% Inhibition” value was -15% and the Z score stood at 2.21. Take `Cc1cc(N2CCN(S(=O)(=O)c3cccs3)CC2)nc(C(C)C)n1`: the “% Inhibition” value is on record as -11% and the Z score was 1.5. Turning to `Fc1cccc(-c2c3c(nn2-c2ccc(Cl)c(Cl)c2)CCc2ccccc2-3)c1`, the “% Inhibition” value is recorded as -6% and the Z score is given as 0.68.

Consider `O=C(CN1CCOCC1)N1c2ccccc2CCc2ccccc21`, for which the “% Inhibition” value was found to be 6% and the Z score was -0.71. As to `COc1ccc(CC[C@H]2CCCCN2C(=O)C2CCNCC2)cc1OC`, the “% Inhibition” value is -4% and the Z score amounted to 0.6. Regarding `Cc1ccc(N2CC(C(=O)N3CCCC(c4ccnc(N)n4)C3)CC2=O)cc1` (centres undefined), the “% Inhibition” value came to 4% and the Z score is reported as -0.49. On to `N#CC12C(N)=NC3(OCCO3)C1(C#N)C2c1ccc2c(c1)OCO2` (centres undefined), for which the “% Inhibition” value is on record as 6% and the Z score is on record as -0.69. For `COc1nc2c(cc1CNc1ccnc(C)n1)C(=O)N(C1CCCC1)C2`, the “% Inhibition” value amounted to 5% and the Z score is listed as -0.74. The like results for `CCCNC(=O)C1CCN(S(=O)(=O)c2ccc3c(ccn3C)c2)CC1` were, in that order, -11% and 1.7.

On to `CCOc1cccc(-c2ccc3nc(-c4cccc(OC)c4)c(CCC(=O)NCCc4ccc(OC)c(OC)c4)n3c2)c1`, for which the “% Inhibition” value is 22% and the Z score is given as -4.22. The like results for `CCN(CC)S(=O)(=O)c1ccc(N2CCOCC2)c(NC(=O)c2ccc3c(c2)OCCO3)c1` were, in that order, -3% and 0.6. With `Cc1nc2nc3c(c(N4CCN(c5cc(Cl)ccc5C)CC4)n2n1)CCCC3`, the “% Inhibition” value is recorded as -21% and the Z score turned out to be 1.93. Consider `N#Cc1ccc(N(CCO)Cc2csc(-c3ccco3)n2)cc1`, for which the “% Inhibition” value is given as -4% and the Z score worked out at 0.5. In the case of `Cc1ccc(-c2noc3c(Nc4ccc(C)c(Cl)c4)ncnc23)cc1`, the “% Inhibition” value was 1% and the Z score was -0.09. `CC(C)c1ccc(CCN(C)C2CCN(S(C)(=O)=O)CC2)cc1`: the “% Inhibition” value is reported as 12% and the Z score is -1.73. With `CN(C)c1noc(CN(Cc2cccc(O)c2)[C@H]2CC[C@H](O)CC2)n1`, the “% Inhibition” value was -9% and the Z score came to 1.39.

Regarding `CC(Oc1cccnc1)C(=O)N1CCCC(S(N)(=O)=O)C1` (centres undefined), the “% Inhibition” value is reported as 28% and the Z score was -3.14.

For the compound `O=C(c1ccc(F)c2ccccc12)N1CCC(N2C(=O)CCCC2=O)CC1`, the “% Inhibition” value is -11% and the Z score worked out at 1.44.

Take `O=c1[nH]c2cccnc2n1C1CCN(c2ncnc3[nH]ccc23)CC1`: the “% Inhibition” value is on record as 1% and the Z score is -0.23.

On to `Cc1cc(CNC(=O)[C@@H](C)CN2CCOCC2)cnc1C`, for which the “% Inhibition” value is reported as -6% and the Z score is on record as 1.25.

For the compound `Cc1cnc(C(=O)NCC2(c3ccccc3)CC2)cn1`, the “% Inhibition” value was -11% and the Z score is recorded as 1.73. Consider `Cc1cccc(S(=O)(=O)N2[C@@H]3CC[C@H]2CC(NC(=O)c2ccc(F)cc2)C3)c1` (some centres undefined), for which the “% Inhibition” value is reported as -15% and the Z score is given as 2.76. In the case of `O=C1CCC[C@@H](C(=O)Nc2cc(Cl)c(Cl)cc2O)N1`, the “% Inhibition” value was -2% and the Z score is given as 0.29. The like results for `Cc1cc(=O)cc(C(=O)N[C@@H](CC(C)C)C(N)=O)n1C` were, in that order, -3% and 0.42. The corresponding values for `CCOc1ccc(CNCCN2CCCC[C@@H]2CO)cn1` are 0% and 0.08. `CCOC(=O)C(=O)Nc1ccc(C)c(Cl)c1`: the “% Inhibition” value is given as -2% and the Z score is given as 0.4. Turning to `CN(Cc1ccccc1)CC(C)(C)NCC(=O)NCc1ccc(F)cc1`, the “% Inhibition” value is given as -6% and the Z score came out at 0.86. `CCOCCCNC(=O)N1CCCCC[C@@H]1CN1CCCC1`: the “% Inhibition” value is 7% and the Z score is on record as -1.09. On to `CN1CCN([C@H]2CCCCN(C(=O)Nc3ccc(N(C)C4CCCCC4)c(F)c3)C2)CC1`, for which the “% Inhibition” value was -17% and the Z score is listed as 2.39.
